Patent US20220031700A1, “Treatment of Acute Respiratory Distress Syndrome (ARDS)” (priority 2020, published 2022)

How the values were obtained:
[1] = system: Influenza virus A/PR/8/34 H1N1; assay: Survival rate in experimental influenza model; settings: influenza 7.5 Lg EID50 IN; 100 mg/kg IP QD 10 days; vehicle-treated group 50%
[2] = system: Influenza virus A/PR/8/34 H1N1; assay: Lung Wet/Dry ratio assay in experimental influenza model; settings: influenza 6.5 Lg EID50 IN; 100 mg/kg IP QD 7 days; Day 7; compared to influenza-infected/vehicle-treated control
[3] = system: Influenza virus A/PR/8/34 H1N1; assay: Daily body weight in experimental influenza model; settings: influenza 7.5 Lg EID50 IN; 100 mg/kg IP QD 10 days; compared to Influenza/Vehicle treated animals

## Cc1cccc(Oc2cnc(=O)[nH]c2)c1 [MLR-1023, tolimidone]
[1]
  overall survival rate (animals survived): 87.5%
[2]
  wet weight/dry weight ratio (pulmonary edema): significantly reduced
[3]
  body weight: did not produce a significant effect
